Results reported in the supplement of paper PMC7125110.
± gives the standard error. This sample is rich in variants without activity.

B1: glmS ribozyme (parent)
chain: AUAAAAGCGCCAGAACUACAGAAAUGUAGUUGACGAGGAGGAGGUUUAUCGAAUUUUCGGCGGAUGCCUCCAAA

Legend:
Conditions in all cases: with glucosamine-6-phosphate
[1] = variants of: B1; experiment: self-cleavage kobs at 640 uM GlcN6P; higher = faster cleavage; RNA array
Outline: (§1)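 Sequenced MiSeq chips were the platform: E. coli RNA polymerase transcribed barcoded ribozyme variants on them in situ, and a hybridised Cy3 probe tracked these at 37 °C. After glucosamine-6-phosphate (40 μM to 10 mM) in HEPES/KCl/Mg(OAc)2 buffer was flowed in, tiles were imaged over ~14 h. Signals normalised to baseline and to non-cleaving reference variants were reduced to per-tile medians and fit to one- or two-exponential decays to obtain kobs. kcat and KM were derived through weighted Michaelis–Menten fits across concentrations.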

[2] = variants of: B1; experiment: self-cleavage kobs at 160 uM GlcN6P; higher = faster cleavage; RNA array
Outline: as §1

[3] = variants of: B1; experiment: self-cleavage kobs at 10000 uM GlcN6P; higher = faster cleavage; RNA array
Outline: as §1

[4] = variants of: B1; experiment: self-cleavage kobs at 2500 uM GlcN6P; higher = faster cleavage; RNA array
Outline: as §1

Row | Variant | self-cleavage kobs at 640 uM GlcN6P [1] | self-cleavage kobs at 160 uM GlcN6P [2] | self-cleavage kobs at 10000 uM GlcN6P [3] | self-cleavage kobs at 2500 uM GlcN6P [4]
1 | C10G A15U A36U | < 1e-05 s⁻¹ |  |  | 
2 | C11U A48G | < 1e-05 s⁻¹ | < 1e-05 s⁻¹ | < 1e-05 s⁻¹ | 
3 | C10U G32U G41C G51U C68A | < 1e-05 s⁻¹ | < 1e-05 s⁻¹ |  | < 1e-05 s⁻¹
4 | C8G A15C U31G | < 1e-05 s⁻¹ |  |  | 
5 | C11G A33C G40A | < 1e-05 s⁻¹ |  |  | 
6 | C8G C58U G59C C61U C67G | < 1e-05 s⁻¹ |  |  | < 1e-05 s⁻¹
7 | C10A A12G C16U | < 1e-05 s⁻¹ |  |  | < 1e-05 s⁻¹
8 | C8U G32C G40U A52C C68U | < 1e-05 s⁻¹ |  |  | < 1e-05 s⁻¹
9 | A12U A48C C58A | < 1e-05 s⁻¹ |  |  | < 1e-05 s⁻¹
10 | C11U G29U U54A | 0.000113 ± 2.1e-05 s⁻¹ |  | 0.000577 ± 0.00014 s⁻¹ | 0.000171 ± 4.4e-05 s⁻¹
11 | C8U G9U A42U | < 1e-05 s⁻¹ |  |  | < 1e-05 s⁻¹
12 | C8G A39U G66A C71U | < 1e-05 s⁻¹ |  |  | < 1e-05 s⁻¹
13 | C11A A33G G62C C70U | < 1e-05 s⁻¹ |  | < 1e-05 s⁻¹ | 
14 | C10A G43C A64C | < 1e-05 s⁻¹ |  |  | < 1e-05 s⁻¹
15 | C10U U31A C34A | < 1e-05 s⁻¹ |  |  | < 1e-05 s⁻¹
16 | A12U G37C G41U | < 1e-05 s⁻¹ |  |  | 
17 | C11U G29U G32C G44U U46G G66U | < 1e-05 s⁻¹ |  |  | < 1e-05 s⁻¹
18 | C10A A36U G62A | < 1e-05 s⁻¹ |  |  | 
19 | C11A G59A C61G C70A | 0.000163 ± 7.6e-05 s⁻¹ |  |  | 
20 | C10A A36C A42C U65C | < 1e-05 s⁻¹ | < 1e-05 s⁻¹ |  | 
21 | C11U G59A G62U G63U | < 1e-05 s⁻¹ |  |  | 

Row | Variant | self-cleavage kobs at 640 uM GlcN6P [1] | self-cleavage kobs at 160 uM GlcN6P [2] | self-cleavage kobs at 10000 uM GlcN6P [3] | self-cleavage kobs at 2500 uM GlcN6P [4]
22 | G9C A36C | < 1e-05 s⁻¹ | < 1e-05 s⁻¹ | < 1e-05 s⁻¹ | < 1e-05 s⁻¹
23 | C8A G13U C70U | < 1e-05 s⁻¹ | < 1e-05 s⁻¹ |  | < 1e-05 s⁻¹
24 | C10G G43U U45G | < 1e-05 s⁻¹ | < 1e-05 s⁻¹ | < 1e-05 s⁻¹ | < 1e-05 s⁻¹
25 | C8G A42C U47A | < 1e-05 s⁻¹ |  |  | < 1e-05 s⁻¹
26 | C11U G40C G44A U57C | < 1e-05 s⁻¹ |  |  | 
27 | G9U G35C | < 1e-05 s⁻¹ |  | < 1e-05 s⁻¹ | 
28 | A12G G29A G37U U56A | < 1e-05 s⁻¹ |  |  | 
29 | A12C G29C A42U G51A C58G C68U | < 1e-05 s⁻¹ |  |  | 
30 | C11A G29C G44A | < 1e-05 s⁻¹ |  |  | 
31 | C11G G35A C50U G59U | < 1e-05 s⁻¹ |  |  | 
32 | C11U U31A G35C | < 1e-05 s⁻¹ |  |  | 
33 | C11U G41C U54G G59C | < 1e-05 s⁻¹ |  |  | 
34 | C11A G40A U46C U65A | < 1e-05 s⁻¹ |  |  | 
35 | C8G A12C G44A U45C C68A | < 1e-05 s⁻¹ |  |  | < 1e-05 s⁻¹
36 | G9A G32U A48C C50U U54C | < 1e-05 s⁻¹ |  |  | < 1e-05 s⁻¹
37 | A12U A33G G35C G44C A53G | < 1e-05 s⁻¹ |  |  | 
38 | C11U G38A A42C | < 1e-05 s⁻¹ |  |  | < 1e-05 s⁻¹
39 | C8U A64U C67U | < 1e-05 s⁻¹ |  | < 1e-05 s⁻¹ | < 1e-05 s⁻¹
40 | A12C U54C C71U | 0.00422 ± 0.0017 s⁻¹ |  |  | 0.0234 ± 0.0081 s⁻¹
41 | A12U A15G G41A | 0.00098 ± 0.00018 s⁻¹ | 0.000272 ± 4.5e-05 s⁻¹ |  | 
42 | C8A G60C | < 1e-05 s⁻¹ | < 1e-05 s⁻¹ | < 1e-05 s⁻¹ | < 1e-05 s⁻¹

Row | Variant | self-cleavage kobs at 640 uM GlcN6P [1] | self-cleavage kobs at 160 uM GlcN6P [2] | self-cleavage kobs at 10000 uM GlcN6P [3] | self-cleavage kobs at 2500 uM GlcN6P [4]
43 | C10A A33C G35A U45A | < 1e-05 s⁻¹ |  |  | 
44 | G9U A42U A48C C50G G63C C67U | < 1e-05 s⁻¹ |  |  | 
45 | G9C C50G G60C C70A | 0.000151 ± 4.9e-05 s⁻¹ |  |  | 
46 | C10G G35A A42C | < 1e-05 s⁻¹ |  |  | < 1e-05 s⁻¹
47 | C8U C58A U65C | < 1e-05 s⁻¹ |  |  | 
48 | C10G C50A C61U | < 1e-05 s⁻¹ |  |  | 
49 | C10U G40A G66U | < 1e-05 s⁻¹ |  | < 1e-05 s⁻¹ | 
50 | G9U G35C G59U | < 1e-05 s⁻¹ |  |  | < 1e-05 s⁻¹
51 | C11U U55G C70A | 8.31e-05 ± 3.3e-05 s⁻¹ |  |  | 
52 | G9A U31A G62A | < 1e-05 s⁻¹ | < 1e-05 s⁻¹ |  | < 1e-05 s⁻¹
53 | C8U G60U C68U | < 1e-05 s⁻¹ | < 1e-05 s⁻¹ | < 1e-05 s⁻¹ | < 1e-05 s⁻¹
54 | C10G G35A G60A | < 1e-05 s⁻¹ |  |  | 
55 | C8U U31G G51C C58U G66C | < 1e-05 s⁻¹ |  |  | < 1e-05 s⁻¹
56 | C8U U45A C50G | < 1e-05 s⁻¹ |  |  | < 1e-05 s⁻¹
57 | G9C C58U G59C | < 1e-05 s⁻¹ | < 1e-05 s⁻¹ |  | < 1e-05 s⁻¹
58 | G9U G40U U46G G62C | < 1e-05 s⁻¹ | < 1e-05 s⁻¹ |  | 
59 | A12G G43A U46G U55A C61G | < 1e-05 s⁻¹ |  |  | 
60 | C10G A15C G35U G37U A52U G63U | < 1e-05 s⁻¹ | < 1e-05 s⁻¹ |  | < 1e-05 s⁻¹
61 | C8U A14U G32C | < 1e-05 s⁻¹ |  |  | < 1e-05 s⁻¹
62 | C8A G32U U45G A48G C71A | < 1e-05 s⁻¹ |  |  | 
